In all, about 420,000 compounds went through this assay and about 50,000 (12%) were called active. The inconclusive results got no clear call from the source; some entries with a clear call stand among them for comparison. Calls follow the shape of the dose curve; as a rule, active = well fitted inhibition curve with a large enough effect; inconclusive = small, poorly fitted or top-dose-only effect; inactive = flat fitted curve, though single readings scatter. Potencies of inconclusive entries are left out as doubtful fits.
Assay: qHTS for Inhibitors of human tyrosyl-DNA phosphodiesterase 1 (TDP1): qHTS in cells in presence of CPT; also: nearly all actives have a fitted effect of over 55% in size
Conditions: chicken DT40 Tdp1-/-;hTDP1 cells + 20 nM CPT, ATP luminescence, 48 h; activity change, negative = growth inhibition: at 46.2 µM (top of the series)
Method in brief: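 Chicken DT40 Tdp1-/- cells stably complemented with human TDP1 were seeded at 400 cells/well in medium containing 20 nM camptothecin, exposed to pin-transferred compounds, and grown at 37 °C for at least 48 hr. Viability was read as ATP luminescence.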
% is scaled to controls: 0 for no effect and ±100 for the full control effect; potency is read from the fitted curve at half-maximal effect; tags tell the direction and shape of the fitted curve.

SMILES | Potency | activity change, negative = growth inhibition
O=C(NCCCN1CCOCC1)c1onc(CSc2nc3ccccc3[nH]2)c1C(=O)NCCCN1CCOCC1 | inconclusive [inhibitor, full curve, poor fit] | –
CCCc1cc(=O)[nH]c(Nc2ccc(O)cc2C)n1 | – | inactive: -13.5%
CN1CCN(C2CCN(c3ccc(Nc4nnc(Cl)c(Nc5ccccc5S(C)(=O)=O)n4)c(OC(CF)CF)c3)CC2)CC1 | inconclusive [inhibitor, single point] | –
O=C(CSc1nc2ccccc2nc1Cc1ccccc1)N1CCCc2ccccc21 | inconclusive [inhibitor, single point] | –
Cc1ccc(/C=N/NC(=O)Cn2nc(C)c([N+](=O)[O-])c2C)o1 | – | inactive: -4.94%
COc1cc(C(=O)Nc2ccc(S(=O)(=O)N3CCc4ccccc43)cc2)cc(OC)c1OC | inconclusive [inhibitor, single point] | –
Cc1cccc(N(C)S(=O)(=O)c2nnc(NC(=O)C3CCCCC3)s2)c1 | inconclusive [inhibitor, single point] | –
C[C@@H]1CN([C@H](C)CO)C(=O)CCCn2cc(nn2)CO[C@H]1CN(C)C(=O)Cc1ccccc1 | – | inactive: -24.8%
Cc1oc(-c2ccc(Cl)cc2)nc1CN1CCCC(C(=O)NCc2ccco2)C1 (centres undefined) | inconclusive [inhibitor, single point] | –
CCOC(=O)N1CCC(NC(=O)c2ccc3c(c2)N(Cc2ccc(Cl)cc2)C(=O)c2ccccc2S3=O)CC1 (centres undefined) | inconclusive [inhibitor, single point] | –
Cc1cc(C)cc(NC(=O)c2cccc(NC(=O)c3ccco3)c2)c1 | inconclusive [inhibitor, single point] | –
COc1cccc(-c2cc3nc(-c4ccccc4)cc(N4CCCC(O)C4)n3n2)c1 (centres undefined) | inconclusive [inhibitor, single point] | –
COC(=O)C[C@H]1C[C@@H]2c3cc(NC(=O)NC4CCCC4)ccc3O[C@@H]2[C@@H](CO)O1 | – | inactive: 2.49%
Cc1ccc(Cn2c(=O)n(Cc3ccccc3Cl)c(=O)c3cccnc32)cc1 | – | inactive: -11.2%
CCCCc1nn2c(=O)cc(COC(=O)c3cccs3)nc2s1 | – | inactive: -26.5%
CCN(CC)S(=O)(=O)c1ccc(C(=O)Nc2nnc(COC)o2)cc1 | – | inactive: 2.12%
CN1C(=O)/C(=C/c2ccc(OC(=O)c3ccco3)cc2)SC1=S | inconclusive [inhibitor, single point] | –
Fc1ccc(OCCCCCn2ccnc2)cc1 | – | inactive: 0.0473%
O=C1c2ccccc2C(=O)C1(CO)c1ccc(OC(F)F)cc1 | – | inactive: -21%
CC1C(=O)N(Cc2cn(CCC3OCCCO3)nn2)CCS(=O)(=O)N1Cc1ccc(-c2ccc(Cl)nc2)cc1 (centres undefined) | inconclusive [inhibitor, single point] | –
COc1ccc2cc(CN(CC3CCCO3)C(=O)Nc3ccccc3OC)c(=O)[nH]c2c1 (centres undefined) | active: 4.11 µM | –
CN(C)c1ccc(/C=C2/C=C(c3ccc4c(c3)CCCC4)OC2=O)cc1 | inconclusive [inhibitor, single point] | –
Cc1cccc(NC(=O)NC2(C(=O)NCc3ccco3)CCCCC2)c1 | – | inactive: 1.1%

SMILES | Potency | activity change, negative = growth inhibition
COc1cccc(NC(=O)COC(=O)COc2cccc3c2OC(C)(C)C3)c1 | – | inactive: -15.5%
Cc1ccccc1SCC(=O)Nc1cc(C(F)(F)F)ccc1N1CCOCC1 | inconclusive [inhibitor, single point] | –
CCOc1ccc(-c2nnn(CC(=O)N3CCN(c4ccc(OC)cc4)CC3)n2)cc1OCC | – | inactive: -12.9%
CCOc1ccc(NC(=O)CN(C)C(=O)CSc2ccccc2)cc1OCC | – | inactive: -19.4%
O=C(NCc1ccc(Cl)cc1)C1CCN(C(=O)c2ccc(Cl)cc2)CC1 | inconclusive [inhibitor, single point] | –
COc1cc(/C=N\NC(=O)c2ccc(C)nc2)ccc1OC(=O)c1cccc(F)c1 | – | inconclusive: -31.3% [inhibitor]
O=C(COc1ccccc1C(=O)Nc1cccnc1)Nc1ccc(Br)cc1 | inconclusive [inhibitor, single point] | –
O=C(NNC(=O)c1ccc(S(=O)(=O)N2CCCCC2)cc1)c1ccccc1 | – | inactive: -8.06%
Cc1cc(C(=O)N/N=C/c2cccc([N+](=O)[O-])c2)c2ccccc2n1 | inconclusive [inhibitor, single point] | –
O=C1NC2(CCCCCC2)C(=O)N1Cc1ccccc1F | – | inactive: -3.52%
Cc1ccc(S(=O)(=O)N2CCN(C(=O)c3ccccc3-c3nc4ccccc4s3)CC2)c(C)c1 | inconclusive [inhibitor, single point] | –
COc1ccc(C(=O)N/N=C\C(C)=C\c2ccccc2)cc1OC | inconclusive [inhibitor, partial curve] | –
Cc1ccc(NC(=O)Cn2ncn3c(cc4ccccc43)c2=O)cc1C | inconclusive [inhibitor, single point] | –
COc1ccc(C(=O)CSC2=NS(=O)(=O)c3cc(Cl)ccc3N2)cc1 | inconclusive [inhibitor, single point] | –
O=C(OCc1nc2ccccc2s1)c1cccc(N2C(=O)CCC2=O)c1 | – | inactive: 6.64%
CCN(CC)S(=O)(=O)c1ccc(NC(=O)COc2c(OC)cccc2OC)cc1 | inconclusive [inhibitor, single point] | –
Cc1noc2ncnc(Sc3ccccc3Cl)c12 | inconclusive [inhibitor, single point] | –
CC1=C(C(=O)N(C)Cc2ccccc2)C2(CCC(C)CC2)OC1=O (centres undefined) | inconclusive [inhibitor, single point] | –
Cn1/c(=N/N=C/c2ccc(N3CCOCC3)cc2)sc2ccccc21 | inconclusive [inhibitor, partial curve, poor fit] | –
O=C(Nc1cccc(-n2cccn2)c1)C1CCCN(Cc2cccc(F)c2F)C1 (centres undefined) | active: 23.1 µM | –
Cc1ccc(-c2nnc3c4ccccc4c(C)nn23)cc1S(=O)(=O)N1CCN(C)CC1 | – | inconclusive: -32.8% [inhibitor]
CCc1ccc(NC(=O)CCNC(=O)Cn2cnc3ccccc3c2=O)cc1 | inconclusive [inhibitor, single point] | –
N#Cc1c2c(c(-n3cnc4ccccc43)n3c1nc1ccccc13)CCC2 | inconclusive [inhibitor, single point] | –

SMILES | Potency | activity change, negative = growth inhibition
CC1(C)CC(=O)C2=C(C1)N(CCN1CCOCC1)C1=C(C(=O)CC(C)(C)C1)C2c1ccc(Cl)cc1 | inconclusive [inhibitor, single point] | –
CC(=O)Nc1cccc(C(=O)/C=C/c2ccco2)c1 | inconclusive [inhibitor, partial curve] | –
COc1ccc(O[C@@H]2O[C@H](COC(C)=O)[C@@H](OC(C)=O)[C@H](OC(C)=O)[C@H]2NC(C)=O)cc1 | – | inactive: 4.15%
Cc1ccc(C2CCN(C(=S)NC3CCCCC3)C2)cc1 (centres undefined) | inconclusive [inhibitor, single point] | –
COc1cc(OC)c(NC(=O)c2c(C)oc3ncnc(N4CCCCC4)c23)cc1Cl | – | inactive: -29.8%
COC(=O)c1ccccc1NC(=O)Cn1c(=O)n(CCCCC(=O)NCc2ccc3c(c2)OCO3)c(=O)c2ccccc21 | inconclusive [inhibitor, single point] | –
COc1cccc(Nc2ncc3ncc(=O)n(Cc4cccs4)c3n2)c1 | inconclusive [inhibitor, single point] | –
CC(C)c1ccc(NC2CCCN(C(=O)c3cscn3)C2)cc1 (centres undefined) | inconclusive [inhibitor, single point] | –
Cn1c(=O)c2c(nc(N3CCOCC3)n2Cc2ccccc2)n(C)c1=O | inconclusive [inhibitor, partial curve] | –
CCOC(=O)c1c(C)[nH]c(C)c1S(=O)(=O)N(C)CC(=O)N1CCN(c2cccc(Cl)c2)CC1 | inconclusive [inhibitor, single point] | –
Cc1nnsc1-c1c(C(=O)N2CCOCC2)c(C)nn1-c1ccc(Cl)cc1 | – | inactive: 12.7%
COc1ccccc1C1/C(=C(/O)c2ccc(C)cc2)C(=O)C(=O)N1Cc1ccco1 (centres undefined) | – | inactive: 11.9%
CCOC(=O)N1CCC(NS(=O)(=O)c2cc3c(cc2Cl)NC(=O)CO3)CC1 | active: 18.4 µM | –
COc1ccc(OC)c(NC(=O)c2cccc(C)c2[N+](=O)[O-])c1 | inconclusive [inhibitor, partial curve, poor fit] | –
c1ccc(-c2c(-c3ccccc3)n(Cc3ccco3)c3ncnc(NCCCn4ccnc4)c23)cc1 | inconclusive [inhibitor, single point] | –
CCNCCNC(=O)c1c(O)c2cccc3c2n(c1=O)CCC3 | – | inconclusive: -31.2% [inhibitor]
COc1ccccc1CNC(=O)c1cnn(-c2nccc(-c3cccs3)n2)c1C | active: 18.4 µM | –
Cc1cccc(C)c1NC(=O)Cn1cc(S(=O)(=O)Cc2ccc(F)cc2)c2ccccc21 | inconclusive [inhibitor, single point] | –
CN(C)c1ccc(/C=C/c2nc3ccccc3s2)cc1Cl | active: 5.01 µM | –
CC(=O)NCc1ccc(C(=O)CN2C(=O)NC3(CCCCC3C)C2=O)s1 (centres undefined) | – | inactive: 9.35%
CCOC(=O)C(=O)/C(=C\N(C)C)c1onc(-c2c(F)cccc2Cl)c1C(=O)OC | inconclusive [inhibitor, single point] | –
CC/C(=N/OC(=O)c1cccc(C)c1)C(=O)c1cccs1 | – | inactive: -2.14%
CCn1ccnc1CN(C)Cc1nc(Cc2cccc(C(F)(F)F)c2)no1 | – | inactive: -2.95%

From PubChem BioAssay AID686979 (National Center for Advancing Translational Sciences (NCATS), 2013)
